Consider 15 compounds from the antibiotic and cytotoxicity screens of Wong et al. (2023).

The list shows a part of the results.

The assay concerns S. aureus RN4220. Put plainly: growth inhibition call (relative growth <= 0.2). Conditions: 50 µM.
As for `C[C@@H]1CN([C@H](C)CO)C(=O)c2c(c3ccccc3n2C)-c2ccccc2CO[C@@H]1CN(C)Cc1ccc(C(=O)O)cc1`, the growth inhibition call was “inactive”.

On to `C[C@@H]1CN([C@@H](C)CO)C(=O)c2cc(C#CCN(C)C)cnc2O[C@@H]1CN(C)S(=O)(=O)c1ccccc1`, for which the growth inhibition call was “inactive”.

`C[C@H]1CN([C@@H](C)CO)C(=O)c2cccc(NC(=O)Nc3cccc4ccccc34)c2O[C@@H]1CN(C)S(=O)(=O)c1ccccc1`: the growth inhibition call was “inactive”.

Take `Cc1noc(C)c1NC(=O)Nc1ccc2c(c1)C(=O)N([C@H](C)CO)C[C@H](C)[C@@H](CN(C)Cc1ccc(-c3ccccc3)cc1)O2`: the growth inhibition call was “inactive”.

In the case of `C[C@H](CO)N1C[C@H](C)[C@H](CN(C)S(=O)(=O)c2cn(C)cn2)Oc2ccc(NC(=O)CCCCCC(=O)Nc3ccccc3N)cc2C1=O`, the growth inhibition call was “inactive”.

Consider `Nc1cc([N+](=O)[O-])ccc1C(=O)O`, for which the growth inhibition call was “inactive”.

For `CC(C)CC#Cc1cnc2c(c1)C(=O)N([C@H](C)CO)C[C@H](C)[C@H](CN(C)S(=O)(=O)c1ccccc1)O2`, the growth inhibition call is “inactive”.

With `C[C@@H]1CN([C@H](C)CO)C(=O)c2cc(NC(=O)Cc3cn(C)c4ccccc34)ccc2O[C@H]1CN(C)Cc1ccc(Oc2ccccc2)cc1`, the growth inhibition call is “inactive”.

In the case of `COCC(=O)N1CC[C@]2(CC1)CN([C@@H](CO)c1[nH]c3cc(ccc3c12)OC)S(=O)(=O)C`, the growth inhibition call is “inactive”.

`Cc1cc(C(=O)Nc2cccc3c2O[C@H](CN(C)Cc2ccncc2)[C@@H](C)CN([C@H](C)CO)C3=O)n(C)n1`: the growth inhibition call was “inactive”.

With `COc1ccc(S(=O)(=O)Nc2ccc3c(c2)CC(=O)N([C@H](C)CO)C[C@@H](C)[C@@H](CN(C)Cc2ccc(Oc4ccccc4)cc2)O3)cc1`, the growth inhibition call was “inactive”.

As for `C[C@H](CO)N1C[C@H](C)[C@@H](CN(C)Cc2ccc(C(F)(F)F)cc2)Oc2c(NC(=O)c3nc4ccccc4s3)cccc2C1=O`, the growth inhibition call is “inactive”.

In the case of `C[C@@H]1CN([C@@H](C)CO)C(=O)CCCn2cc(nn2)CO[C@@H]1CN(C)S(C)(=O)=O`, the growth inhibition call is “inactive”.

`CCOC(=O)c1n[nH]c(=S)[nH]c1=O`: the growth inhibition call is “inactive”.

In the case of `COc1ccccc1-c1cnc2c(c1)C(=O)N([C@@H](C)CO)C[C@@H](C)[C@@H](CN(C)C(=O)c1ccncc1)O2`, the growth inhibition call was “inactive”.
